# According to PubChem BioAssay AID1345083 (National Center for Advancing Translational Sciences (NCATS), 2018):
# In all, about 94,000 compounds went through this assay and about 6,200 (6.6%) were called active. This list was built around the results that the source calls inconclusive (neither active nor inactive); the mix of calls is not that of the screen. The call rests on the fitted dose curve; in most records, active means well fitted inhibition curve with a large enough effect; inconclusive means small, poorly fitted or top-dose-only effect; inactive means flat fitted curve, though single readings scatter. Where the call is inconclusive, the potency comes from a doubtful curve fit.
# Test: Cytotoxic Profiling in HEK 293 Cell Line of Diverse Libraries Using Quantitative High-Throughput Screening; further: nearly all actives have a fitted effect of over 60% in size
# Details: HEK 293 viability, ATP luminescence (CellTiter-Glo), 48-72 h; series mostly up to 115 µM
# Procedure, shortened: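 Cells seeded first (HEK 293, 250 cells/well), then compound added by pintool. Incubation ran 48 or 72 hr at 37 degree Celsius. CellTiter-Glo was added and luminescence imaged after 10 min at room temperature.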
# Potency means the concentration at half of the fitted maximal effect; tags describe the fitted curve by direction and shape.
row,Structure (SMILES),Potency
1,COCCNC(=O)c1nc(-c2ccccc2)c2ccccn12,active: 100 µM
2,CN1c2cc(C(=O)NCCc3ccccc3)ccc2C(=O)N2CCCCC21 (stereo unspecified),"inconclusive: 50.1 µM [inhibitor, partial curve, poor fit]"
3,CCn1nc(-c2ccc3c(c2)OCCO3)nc1N(C)C,inactive
4,COCCn1cc2c3c(cccc31)CN(C(=O)c1cccc(C(F)(F)F)c1)CC2,"inconclusive: 79.4 µM [inhibitor, partial curve, poor fit]"
5,Cc1nn(-c2ccccc2)c2c1C(C1CC1)N(C1CN(C(=O)C3CC3)C1)C2=O (stereo unspecified),"inconclusive: 70.8 µM [inhibitor, partial curve, poor fit]"
6,COCCOc1ccnc(-c2noc([C@@H]3CCCN3Cc3ccncc3)n2)c1,"inconclusive: 39.8 µM [inhibitor, partial curve, poor fit]"
7,CCn1nccc1C(=O)N1CCCn2cc(-c3ccccc3F)nc21,inactive
8,COc1ccc(-c2ccc3ncc(Nc4ccc5c(c4)OCCO5)n3n2)cc1OC,active: 44.7 µM
9,CCc1ccccc1-n1nc(-c2c(C)nc3scc(CC(=O)NCc4ccco4)n3c2=O)cc1C,"inconclusive: 44.7 µM [inhibitor, partial curve, poor fit]"
10,O=C(NCc1cccnc1)c1nc(-c2ccccc2)cc2[nH]ccc12,active: 89.1 µM
11,CC(C)NC(=O)N1CC(Oc2ccc(-c3noc(-c4cccnc4)n3)cc2)C1,"inconclusive: 10 µM [inhibitor, full curve, poor fit]"
12,CC1(C)[C@H]2CC[C@@H](CNC(=O)Cc3cccc(Cl)c3)[C@@H]1C2,active: 100 µM
13,CCCS(=O)(=O)N1CC[C@H](c2nc(C)no2)[C@H](NC(=O)C2CC2)C1,inactive
14,CC1=C[C@@H](CN(C)C)[C@H](C(C)C)C[C@H]1Cc1nc2c(C)cccc2[nH]1,active: 100 µM
15,CC(C)Cc1cn(CC2CCCN(C(=O)c3n[nH]c4c3CCCC4)C2)nn1 (stereo unspecified),"inconclusive: 31.6 µM [inhibitor, partial curve]"
16,Cc1ccc(C2Cn3nnc(C(=O)N4CCC(C(=O)Nc5ccc(Cl)cc5)CC4)c3CO2)cc1 (stereo unspecified),"inconclusive: 39.8 µM [inhibitor, partial curve]"
17,O=C(c1ccc2c(c1)OCO2)N1CCCN(c2cc(-c3ccc(F)cc3)[nH]n2)CC1,"inconclusive: 79.4 µM [inhibitor, partial curve, poor fit]"
18,COc1ccccc1-c1cc(C(=O)NCc2ccc(F)cc2)c2cnn(C)c2n1,inactive
19,Cc1cc(-c2cc(-c3cccs3)nc3c(C)noc23)ccn1,"inconclusive: 50.1 µM [inhibitor, partial curve, poor fit]"
20,Cc1ccccc1Cn1cc(-c2ccncc2)cc1C(=O)N1CCN(C2CCCCC2)CC1,"inconclusive: 50.1 µM [inhibitor, partial curve, poor fit]"
21,O=C1COc2ccc(-c3ccncc3)nc2CN1Cc1ccccc1,"inconclusive: 79.4 µM [inhibitor, partial curve]"
22,O=C(Cc1ccccn1)NCCNC(=O)c1cccc(-c2ccc(C(F)(F)F)cc2)c1,inactive

row,Structure (SMILES),Potency
1,COc1ccc(-c2noc([C@@H]3CCCN3C(=O)Cc3ccccc3Cl)n2)cc1,"inconclusive: 50.1 µM [inhibitor, partial curve, poor fit]"
2,O=C(c1ccccc1-c1ncc[nH]1)N1CCOC(c2ccc(Cl)cc2)C1 (stereo unspecified),"inconclusive: 56.2 µM [inhibitor, partial curve, poor fit]"
3,O=C(CCc1nnn2c1CN(C(=O)NCc1ccccc1)CC2)N1CCOCC1,"inconclusive: 89.1 µM [inhibitor, single point]"
4,O=C(NCc1ccccc1Cl)C1CN(C2CCCC2)C(=O)N1 (stereo unspecified),inactive
5,O=C(Cc1c[nH]c2ncc(-c3ccccc3)cc12)NCCN1CCOCC1,inactive
6,Cc1ccc(-c2ccc3nnc(CNC(=O)c4ccco4)n3n2)cc1,inactive
7,COCCOC1CN(C2CCN(S(=O)(=O)c3cccc(F)c3)CC2)C12CCCCC2 (stereo unspecified),"inconclusive: 56.2 µM [inhibitor, partial curve, poor fit]"
8,COc1cccc(-c2ccc(C(=O)N3CCC(NC(=O)c4ccccc4Cl)CC3)cc2)c1,active: 39.8 µM
9,O=C(Cn1ccn2nc(-c3ccccc3)c(CO)c2c1=O)Nc1cccc(Cl)c1,"inconclusive: 39.8 µM [inhibitor, partial curve, poor fit]"
10,COc1cccc(NC(=O)C2(C)CCc3cnc(NCc4ccccc4)nc32)c1 (stereo unspecified),active: 70.8 µM
11,O=C(COc1ccc(F)cc1)N1CCC(Oc2ccc(-c3noc(C4CC4)n3)cc2)C1 (stereo unspecified),"inconclusive: 50.1 µM [inhibitor, partial curve, poor fit]"
12,O=C1CC(C(=O)N2CCc3nc(-c4ccccc4)[nH]c3C2)C2(CCCCC2)O1 (stereo unspecified),inactive
13,Cc1oc2c(c1C(=O)NCCCN1CCCC1=O)CN(Cc1cccc(F)c1)CC2,"inconclusive: 89.1 µM [inhibitor, partial curve, poor fit]"
14,O=C(Nc1ccc2c(c1)OCCO2)N1CCCC1c1nc(CCOCC2CCCC2)no1 (stereo unspecified),"inconclusive: 89.1 µM [inhibitor, single point]"
15,CC(=O)N1CCC(C(=O)N2CCCn3cc(-c4ccccc4)nc32)CC1,"inconclusive: 44.7 µM [inhibitor, full curve, poor fit]"
16,O=C(NCc1cccc(Cl)c1)c1nc2sccn2c1-c1ccncc1,"inconclusive: 50.1 µM [inhibitor, partial curve, poor fit]"
17,C=CCN1C[C@@H]2CN(C(=O)CCc3cccc(OC)c3)C[C@]2(C(=O)O)C1,inactive
18,Cc1c(F)cccc1NC(=O)N1CCC(OC2CCN(Cc3ccccc3)CC2)CC1,"inconclusive: 79.4 µM [inhibitor, partial curve, poor fit]"
19,COc1ccc(-c2cc(N3CCCC(NC(=O)c4ccc(C)s4)C3)n[nH]2)cc1 (stereo unspecified),"inconclusive: 35.5 µM [inhibitor, partial curve, poor fit]"
20,CN(Cc1cccnc1)c1ccc(-c2nc(COc3ccccc3)no2)cn1,active: 25.1 µM
21,CCOc1ccc(C(=O)N2CCCC3(C2)NC(=O)N(Cc2ccccc2)C3=O)cc1 (stereo unspecified),inactive
22,Cn1ncc(N2CCCC(CC(=O)N3CCCCCC3)C2)cc1=O (stereo unspecified),inactive

row,Structure (SMILES),Potency
1,COc1ccc(CN2C(=O)COC[C@H]2C(=O)NCc2ccc(Cl)cc2)c(OC)c1,inactive
2,O=C(C[C@@H]1CCNC[C@@H]1Cc1cc(COc2ccccc2)on1)NCc1cccs1,"inconclusive: 89.1 µM [inhibitor, partial curve, poor fit]"
3,Cc1ccc(C)c(NC(=O)Cn2c(N3CCN(c4ccccc4)CC3)nc(C)cc2=O)c1,"inconclusive: 50.1 µM [inhibitor, partial curve, poor fit]"
4,CN1CCN(C(=O)c2ccc3oc(-c4cccnc4)nc3c2)CC1,inactive
5,O=C(c1ccc2cc[nH]c2c1)N1CCC2(CC1)N=C(c1cccc(Br)c1)NO2,"inconclusive: 50.1 µM [inhibitor, partial curve, poor fit]"
6,CC(C)(C)c1ccc(C(=O)Nc2ccc([C@H]3OCC(=O)N[C@@H]3CO)cc2)cc1,"inconclusive: 112 µM [inhibitor, partial curve]"
7,O=C(c1ccccc1F)N1CCCC(C(=O)N2CCC(c3ccccc3)CC2)C1 (stereo unspecified),"inconclusive: 50.1 µM [inhibitor, partial curve, poor fit]"
8,CC1(C)[C@H](Cc2cc(COc3ccccc3)on2)C[C@@H]1NC(=O)C1CCC1,active: 35.5 µM
9,CCCCNC(=O)c1cccc2c1CCN2C(=O)Nc1ccccc1,"inconclusive: 25.1 µM [inhibitor, partial curve]"
10,COc1ccccc1CCN1CCC(CN(C)C(=O)CCc2ccccc2Cl)CC1,"inconclusive: 50.1 µM [inhibitor, partial curve, poor fit]"
11,O=C(c1ccccc1)N1CCc2nc(C3CC3)nc(-c3ccc(Cl)cc3)c2C1,"inconclusive: 50.1 µM [inhibitor, partial curve, poor fit]"
12,N#Cc1cccc(N2CCC(Oc3ccc(Cl)cc3)(C(=O)O)CC2)n1,"inconclusive: 31.6 µM [inhibitor, partial curve, poor fit]"
13,CC(C)Cn1cncc1CNC(=O)c1ccc2nc(-c3ccc(F)cc3)cn2c1,"inconclusive: 56.2 µM [inhibitor, partial curve, poor fit]"
14,COc1ccccc1-c1ccc2ncc(Nc3ccc(CCO)cc3)n2n1,"inconclusive: 112 µM [inhibitor, partial curve, poor fit]"
15,O=C(N[C@@H]1C[C@H](Cn2cc(C3CC3)nn2)[C@@H](O)[C@H]1O)c1cncnc1,inactive
16,CNC(=O)[C@@H](c1ccc(Cl)cc1)N1CCC[C@H]1C(=O)N1CC[C@@H](O)C1,inactive
17,O=C(Nc1cccc(F)c1)C1CCCN(Cc2cccc(-c3cccs3)c2)C1 (stereo unspecified),active: 31.6 µM
18,COc1cccc(CN2CCCCC23Cc2ccccc2CNC3=O)n1 (stereo unspecified),"inconclusive: 79.4 µM [inhibitor, partial curve, poor fit]"
19,COc1ccc(C(=O)N2CCCC(Cc3ncc(C)n3Cc3ccccc3)C2)c(OC)c1 (stereo unspecified),inactive
20,CCN1c2cc(C(=O)NCc3cccc(Cl)c3)ccc2C(=O)N2CCCCCC21 (stereo unspecified),"inconclusive: 50.1 µM [inhibitor, partial curve]"
21,C1CCC(COCCc2noc(C3CCCN3)n2)C1 (stereo unspecified),inactive
22,O=C([C@H](O)c1ccccc1)N1CCc2onc(-c3cccc4ccccc34)c2C1,"inconclusive: 35.5 µM [inhibitor, partial curve, poor fit]"
